± gives the standard deviation. In all, about 6,600 sequences were measured (“pre-steady-state target cleavage rate”: median about 0.07, highest 2% from about 0.72 on). Only a part is listed here, and it is no random draw.

In the test the test system is MIWI (PIWIL1) piRISC loaded with Kctd7 piRNA (30 nt). Description: pre-steady-state target cleavage rate (min^-1); MIWI and MILI are mouse PIWI proteins and EfPiwi is from a freshwater sponge; tags in brackets are library labels; higher = faster piRNA-guided slicing of the target. As to conditions: guide: Kctd7 piRNA 5'p-UGUUAAUCUCUCAGAGAAGGUGACAGUGAU; auxiliary factor: 500 nM mouse GTSF1. In outline: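 The pre-steady-state cleavage rate came from a burst-and-steady-state fit to pooled data from three Cleave-'n-Seq trials, in which uncleaved targets were sequenced and normalised to depth and to weakly complementary targets. Each reaction held 0.1 nM transcribed, DNA-blocked target RNA library and 1 nM active affinity-purified piRISC carrying one synthetic guide, with or without 500 nM GTSF1 partner protein, in HEPES–potassium acetate buffer at 33 °C for 0–8 or 0–960 min. k3 was capped at 0.0001 min^-1.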
For the sequence UAGUGAGUCAGCUUCUGUGAGAGAUUAACA, the “pre-steady-state target cleavage rate” value turned out to be 0.406 ± 0.027. With UACAGUGUCACCUUCUCUGAGAGAUAUUGA, the “pre-steady-state target cleavage rate” value stood at 0.0949 ± 0.027. Take UAGUGACACACCUUCUCUGAGAGCAUUAACA: the “pre-steady-state target cleavage rate” value amounted to 0.296 ± 0.042. As for AUCACUGUCACCUUCUCUGAGAGAUAACA, the figure is 0.232 ± 0.037. UAGUGUGUCUCCUUCACUGAGAGAUUAACA: the “pre-steady-state target cleavage rate” value is 0.119 ± 0.011.

Regarding UAGACUGUCACCUUCUCUAGAGAUUAACA, the “pre-steady-state target cleavage rate” value came out at 0.136 ± 0.0091. On to UAGUGACUCACCUUCUCUGAGAGUAAAUGA, for which the “pre-steady-state target cleavage rate” value is 0.00493 ± 0.0032. Turning to AUCACAGUCUCCUUCUCUGAGAGAUUAACA, the “pre-steady-state target cleavage rate” value turned out to be 0.511 ± 0.032. For UAGUGACUCUCCUUCUCUGAGACAUUAACA, the “pre-steady-state target cleavage rate” value came out at 0.0463 ± 0.0073.

Turning to AUGACAGUCACCUUCUCUGAGAGAUUAACA, the “pre-steady-state target cleavage rate” value was 0.657 ± 0.024. As to UAGUGACAGUCCUUUUCUGAGAGAUUAACA, the “pre-steady-state target cleavage rate” value was found to be 0.0193 ± 0.0042. For UAGACUGUGACCUUCUCUGAGACAUUAACA, the “pre-steady-state target cleavage rate” value worked out at 0.075 ± 0.0091.

As to UAGUGAGUCACCUUCUCUGACGAGAUUAACA, the “pre-steady-state target cleavage rate” value was 0.0116 ± 0.0049. Regarding UAGUGACUCACCUUCUCUGGAGAUUAACA, the “pre-steady-state target cleavage rate” value is 0.0282 ± 0.0065. As to UAGUGUGAGUCCUUCUCUGAGAGAUUAACA, the “pre-steady-state target cleavage rate” value was found to be 0.101 ± 0.011. Take UAGUCUGUCACCUUCAGAGAGAGAUUUUGA: the “pre-steady-state target cleavage rate” value stood at 0.00669 ± 0.0048. Regarding UACACUGUCACCUUCUCUGAGAGAAUAAGA, the “pre-steady-state target cleavage rate” value came to 0.0626 ± 0.023. As to AUCACUGUCACCUUCUCUGAGAGAUUAAAA, the “pre-steady-state target cleavage rate” value was 0.169 ± 0.023. CUCACUGUCACCUUCUCUGAGAGAUUAACA: the “pre-steady-state target cleavage rate” value was determined as 0.714 ± 0.031. On to UUCACUGUCACCUUCUCUGAGAGAUAAUGA, for which the “pre-steady-state target cleavage rate” value is 0.101 ± 0.029. Consider AUCACUGAGUCCUUCUCUGAGAGAUUAUGA, for which the “pre-steady-state target cleavage rate” value turned out to be 0.0896 ± 0.022. UACACUGUCUCCUUCUCAGAGAGAUUAACA: the “pre-steady-state target cleavage rate” value was determined as 0.319 ± 0.022. The value for UAGUGACACACCUUCUCUGUGAGAUUUACA was 0.077 ± 0.009.

For UAGACUGACACCUUCUCUGAGAGAUUAUGA, the “pre-steady-state target cleavage rate” value is 0.0717 ± 0.013. Consider AUCACUGUCACCUUCUCUGAGAGACUUAACA, for which the “pre-steady-state target cleavage rate” value came out at 0.272 ± 0.027. Take UACACUGUCACGUUCUCUGACAGAUUAACA: the “pre-steady-state target cleavage rate” value turned out to be 0.0799 ± 0.012. Regarding UAGUGACUGACCUUCUCUGAGAGAUAAACA, the “pre-steady-state target cleavage rate” value is 0.102 ± 0.0097. UUCACUGUCACCUUCUCUGAGAGAUUAAGA: the “pre-steady-state target cleavage rate” value was found to be 0.238 ± 0.037. As to UAGUGACAGACCUUCUCUGACAGAUAAACA, the “pre-steady-state target cleavage rate” value is 0.00666 ± 0.0029. As for AUCACUGUCACCUUCUCACAGAGAUUAAGA, the “pre-steady-state target cleavage rate” value is 0.00695 ± 0.0036. Turning to UACUCUGUCACCUUCUCUGAGAGAUUAUCA, the “pre-steady-state target cleavage rate” value came out at 0.207 ± 0.026. The value for UUGACUGUCACCUUCUCUGAGAGUUUAACA was 0.253 ± 0.035. Consider UAGUGAGUCACCAUCUCUGAGAGAUAUUGA, for which the “pre-steady-state target cleavage rate” value was determined as 0.00592 ± 0.0043. Take UAGUCUGUCACCUUCUCUCAGAGAUUAACA: the “pre-steady-state target cleavage rate” value is 0.121 ± 0.0091. UAGUCUGUCACCUUCUCUGAGACAAUAACA: the “pre-steady-state target cleavage rate” value turned out to be 0.0313 ± 0.0097. Regarding AUCACUGUCACCUUCACUGAGAGAAUAACA, the “pre-steady-state target cleavage rate” value is 0.261 ± 0.059. Regarding AUCACUCUCUCCUUCUCUGAGAGAUUAACA, the “pre-steady-state target cleavage rate” value came to 0.4 ± 0.026. On to UAGACUGUCACCUUCUAUGAGAGAUUAACA, for which the “pre-steady-state target cleavage rate” value was determined as 0.176 ± 0.018. Consider AUGACUGUCACCUUCUCUGACAGAUUAACA, for which the “pre-steady-state target cleavage rate” value is 0.143 ± 0.016.

For the sequence AUCACUUCACCUUCUCUGAGAGAUUAACA, the “pre-steady-state target cleavage rate” value amounted to 0.652 ± 0.038. On to UAGUGACACACCUUCUCUGAGACGAUUAACA, for which the “pre-steady-state target cleavage rate” value came to 0.0061 ± 0.0026. UAGUGUGUGACCUUCUCAGAGAGAUUAACA: the “pre-steady-state target cleavage rate” value was found to be 0.166 ± 0.011.

Regarding UAGUGAGUCACACUUCUCUGAGAGAUUAACA, the “pre-steady-state target cleavage rate” value amounted to 0.361 ± 0.018. UAGUGACUCACCUUCUGUGAGACAUUAACA: the “pre-steady-state target cleavage rate” value turned out to be 0.0496 ± 0.008. For the sequence UAGACUGUCACGUUCUCUGAGAGAUUAACA, the “pre-steady-state target cleavage rate” value was found to be 0.671 ± 0.042.

Consider UAGUGACACACCAUCUCUGAGAGAUUAAGA, for which the “pre-steady-state target cleavage rate” value was determined as 0.0216 ± 0.006. As for UAGACUGUCACCUUCUCUGAGAGAUAAACA, the figure is 0.355 ± 0.038.

For the sequence UAGUGAGUCACCCUUCUCUGAGAGAUUAACA, the “pre-steady-state target cleavage rate” value turned out to be 0.477 ± 0.041.

With UAGUGACAGUCCUUCUCAGAGAGAUUAUCA, the “pre-steady-state target cleavage rate” value was determined as 0.0056 ± 0.0039.

As to UAGUGACUGUGCUUCUCUGAGAGAUUAAGA, the “pre-steady-state target cleavage rate” value is 0.00915 ± 0.0029.

For the sequence UUCAGUGUCACCUUCUCUGAGAGUUUAACA, the “pre-steady-state target cleavage rate” value was 0.37 ± 0.059.

With UAGUGACAGUCCUUCUCUGAGAGCAUUAACA, the “pre-steady-state target cleavage rate” value was found to be 0.0184 ± 0.0048. Take UACACUGUCAGCUUCUCUGUGAGAUUAACA: the “pre-steady-state target cleavage rate” value amounted to 0.205 ± 0.013.

Consider UAGUGACAGUGCUUCUCUGAGAGAUUGAACA, for which the “pre-steady-state target cleavage rate” value amounted to 0.00567 ± 0.0026. Turning to UUCACUGUCACCUUCUCUGUGAGAAUAACA, the “pre-steady-state target cleavage rate” value is 0.0493 ± 0.0095.

Consider UAGUGACACACCAUGUCUGAGAGAUUAACA, for which the “pre-steady-state target cleavage rate” value turned out to be 0.00514 ± 0.0044.

Turning to UAGUCUGUCAGCUUGUCUGAGAGAUUAACA, the “pre-steady-state target cleavage rate” value was found to be 0.103 ± 0.011. UUCACUGUCACCUUCUCUGAGGAGAUUAACA: the “pre-steady-state target cleavage rate” value is 0.0141 ± 0.0076. For UAGACUGUCAGCUUCUCUGAGAGAAUAACA, the “pre-steady-state target cleavage rate” value was 0.167 ± 0.027. In the case of AUCACUGUCACCUUCUUUGAGAGAUUAACA, the “pre-steady-state target cleavage rate” value is 0.656 ± 0.033.

In the case of AUCACUGUCACCUUCUCGAGAGAUUAACA, the “pre-steady-state target cleavage rate” value was found to be 0.105 ± 0.019. Take UACACUGUCACCUUCUCACAGAGAUUUUGA: the “pre-steady-state target cleavage rate” value was 0.0214 ± 0.011.

As to UACACUGUCACCUUCUCACAGAGAUUAUGA, the “pre-steady-state target cleavage rate” value was found to be 0.00629 ± 0.0054. For UUCACUGUCACCUUCUCUGAGAGAUUAUCA, the “pre-steady-state target cleavage rate” value amounted to 0.353 ± 0.044. As for UAGUGACUCACCUUCUCUAGAGAUUAACA, the figure is 0.0136 ± 0.0051; as for UUCACUGUCACCAUCUCUGAGAGAUAUUGA, 0.00824 ± 0.004; as for UAGUGACACACCUUCUCUGAGAGAUCAACA, 0.173 ± 0.025. As for AUCACUGUCACCUUCUCAGAGAGAUAUUGA, the figure is 0.00956 ± 0.0054; as for AAGUCUGUCACCUUCUCUGAGAGAUUAUGA, 0.0617 ± 0.016. Turning to UUCACUGUCACCUUCACUGACAGAUUAACA, the “pre-steady-state target cleavage rate” value is 0.273 ± 0.029. Turning to UAGUGUGUCACCUUCUCUGAGUAGAUUAACA, the “pre-steady-state target cleavage rate” value stood at 0.00758 ± 0.004.

With UACACUGUCACCUUCUAUGAGAGAUUAACA, the “pre-steady-state target cleavage rate” value came to 0.253 ± 0.024.

For the origin of these results see the supplement of paper PMC10338343.
